Measurements taken from patent US11178870B2 (priority 2017, dated 2021).

How the values were obtained:
Phytophthora infestans = format: in vivo; details: Table 7, Test F
[1] = system: Colletotrichum orbiculare; details: 250 ppm sprayed (2.5 ml/pot) before inoculation; assessed 6 to 10 days after inoculation
Magnaporthe grisea = format: in vivo; details: Table 7, Test A

Row | Compound | control value, Test F (late blight on tomato) (Phytophthora infestans) | control value, Test H (anthracnose on cucumber) [1] | control value, Test A (blast on rice) (Magnaporthe grisea)
1 | O=c1ccc(-c2ccsc2Br)c(-c2c(F)cccc2F)n1CC(F)F [Compound 323] | H (H shows the control value more than 50%) | H (H shows the control value more than 50%) | –
2 | CCn1c(-c2c(F)cccc2Br)c(-n2cc(F)cn2)ccc1=O [Compound 360] | L (L shows the control value of 50% or less) | – | H (H shows the control value more than 50%)
